Changes are numbered by the printed parent chain.

To fix the notation:
B1: Example 163 (antibody, human IgG1, lambda)
heavy: QVELLESGGGLVQPGGSLRLSCAASGFTFSNAWMSWVRQAPGKGLEWVSYISSSGSTIYYADSVKGRFTISRDNSKNTLYLQMNSLRAEDTAVYYCAREGLWAFDYWGQGTLVTVSS[in this place human IgG1 constant region]
light: DIVLTQPPSASGTPGQRVTISCTGSSSNIGAGYVVHWYQQLPGTAPKLLIYDNNKRPSGVPDRFSGSKSGTSASLAISGLRSEDEADYYCAAWDDRLNGPVFGGGTKLTVLGQPKAAPSVTLFPPSSEELQANKATLVCLISDFYPGAVTVAWKGDSSPVKAGVETTTPSKQSNNKYAASSYLSLTPEQWKSHRSYSCQVTHEGSTVEKTVAPTECS
modifications: linker-toxophore on cysteine S
B2: Example 385 (antibody, human IgG1, lambda)
heavy: B1 heavy with Q1E, E3Q
light: B1 light with D1E, I2S, A10V, T13A, G155A
modifications: linker-toxophore on cysteine S
B3: Example 268 (antibody, human IgG1, lambda)
heavy: B1 heavy with Q1E, E3Q
light: B1 light with D1E, I2S, A10V, T13A, G155A
modifications: linker-toxophore on lysine NH
B4: Example 216 (antibody, human IgG1, lambda)
heavy: B1 heavy with Q1E, E3Q
light: B1 light with D1E, I2S, A10V, T13A, G155A
modifications: linker-toxophore on cysteine S
B5: Example 267 (antibody, human IgG1, lambda)
heavy: B1 heavy with Q1E, E3Q
light: B1 light with D1E, I2S, A10V, T13A, G155A
modifications: linker-toxophore on lysine NH
B6: Example 261 (antibody, human IgG1, lambda)
heavy: B1 heavy with Q1E, E3Q
light: B1 light with D1E, I2S, A10V, T13A, G155A
modifications: linker-toxophore on lysine NH
B7: Example 263 (antibody, human IgG1, lambda)
heavy: B1 heavy with Q1E, E3Q
light: B1 light with D1E, I2S, A10V, T13A, G155A
modifications: linker-toxophore on lysine NH
B8: Example 272 (antibody, human IgG1, lambda)
heavy: B1 heavy with Q1E, E3Q
light: B1 light with D1E, I2S, A10V, T13A, G155A
modifications: linker-toxophore on cysteine S
B9: Example 244 (antibody, human IgG1, lambda)
heavy: B1 heavy with Q1E, E3Q
light: B1 light with D1E, I2S, A10V, T13A, G155A
modifications: linker-toxophore on cysteine S
B10: Example 264 (antibody, human IgG1, lambda)
heavy: B1 heavy with Q1E, E3Q
light: B1 light with D1E, I2S, A10V, T13A, G155A
modifications: linker-toxophore on lysine NH
B11: Example 213 (antibody, human IgG1, lambda)
heavy: B1 heavy with Q1E, E3Q
light: B1 light with D1E, I2S, A10V, T13A, G155A
modifications: linker-toxophore on cysteine S
B12: Example 271 (antibody, human IgG1, lambda)
heavy: B1 heavy with Q1E, E3Q
light: B1 light with D1E, I2S, A10V, T13A, G155A
modifications: linker-toxophore on cysteine S
B13: Example 243 (antibody, human IgG1, lambda)
heavy: B1 heavy with Q1E, E3Q
light: B1 light with D1E, I2S, A10V, T13A, G155A
modifications: linker-toxophore on lysine NH
B14: Example 255 (antibody, human IgG1, lambda)
heavy: B1 heavy with Q1E, E3Q
light: B1 light with D1E, I2S, A10V, T13A, G155A
modifications: linker-toxophore on cysteine S
B15: Example 190 (antibody, human IgG1, lambda)
heavy: B1 heavy
light: B1 light
modifications: linker-toxophore on cysteine S
B16: Example 246 (antibody, human IgG1, lambda)
heavy: B1 heavy with Q1E, E3Q
light: B1 light with D1E, I2S, A10V, T13A, G155A
modifications: linker-toxophore on cysteine S
B17: Example 194 (antibody, human IgG1, lambda)
heavy: B1 heavy
light: B1 light
modifications: linker-toxophore on cysteine S
B18: Example 269 (antibody, human IgG1, lambda)
heavy: B1 heavy with Q1E, E3Q
light: B1 light with D1E, I2S, A10V, T13A, G155A
modifications: linker-toxophore on cysteine S
B19: Example 387 Diastereomer 1 (antibody, human IgG1, lambda)
heavy: B1 heavy with Q1E, E3Q
light: B1 light with D1E, I2S, A10V, T13A, G155A
modifications: linker-toxophore on lysine NH
B20: Example 247 (antibody, human IgG1, lambda)
heavy: B1 heavy with Q1E, E3Q
light: B1 light with D1E, I2S, A10V, T13A, G155A
modifications: linker-toxophore on cysteine S
B21: Example 265 (antibody, human IgG1, lambda)
heavy: B1 heavy with Q1E, E3Q
light: B1 light with D1E, I2S, A10V, T13A, G155A
modifications: linker-toxophore on lysine NH
B22: Example 386 (antibody, human IgG1, lambda)
heavy: B1 heavy with Q1E, E3Q
light: B1 light with D1E, I2S, A10V, T13A, G155A
modifications: linker-toxophore on lysine NH
B23: Example 188 (antibody, human IgG1, lambda)
heavy: B1 heavy
light: B1 light
modifications: linker-toxophore on cysteine S
B24: Example 259 (antibody, human IgG1, lambda)
heavy: B1 heavy with Q1E, E3Q
light: B1 light with D1E, I2S, A10V, T13A, G155A
modifications: linker-toxophore on cysteine S
B25: Example 218 (antibody, human IgG1, lambda)
heavy: B1 heavy with Q1E, E3Q
light: B1 light with D1E, I2S, A10V, T13A, G155A
modifications: linker-toxophore on cysteine S
B26: Example 258 (antibody, human IgG1, lambda)
heavy: B1 heavy with Q1E, E3Q
light: B1 light with D1E, I2S, A10V, T13A, G155A
modifications: linker-toxophore on lysine NH
B27: Example 266 (antibody, human IgG1, lambda)
heavy: B1 heavy with Q1E, E3Q
light: B1 light with D1E, I2S, A10V, T13A, G155A
modifications: linker-toxophore on lysine NH
B28: Example 177 (antibody, human IgG1, lambda)
heavy: B1 heavy
light: B1 light
modifications: linker-toxophore on cysteine S
B29: Example 248 (antibody, human IgG1, lambda)
heavy: B1 heavy with Q1E, E3Q
light: B1 light with D1E, I2S, A10V, T13A, G155A
modifications: linker-toxophore on lysine NH
B30: Example 242 (antibody, human IgG1, lambda)
heavy: B1 heavy with Q1E, E3Q
light: B1 light with D1E, I2S, A10V, T13A, G155A
modifications: linker-toxophore on cysteine S
B31: Example 257 (antibody, human IgG1, lambda)
heavy: B1 heavy with Q1E, E3Q
light: B1 light with D1E, I2S, A10V, T13A, G155A
modifications: linker-toxophore on cysteine S
B32: Example 254 (antibody, human IgG1, lambda)
heavy: B1 heavy with Q1E, E3Q
light: B1 light with D1E, I2S, A10V, T13A, G155A
modifications: linker-toxophore on cysteine S
B33: Example 270 (antibody, human IgG1, lambda)
heavy: B1 heavy with Q1E, E3Q
light: B1 light with D1E, I2S, A10V, T13A, G155A
modifications: linker-toxophore on lysine NH
B34: Example 262 (antibody, human IgG1, lambda)
heavy: B1 heavy with Q1E, E3Q
light: B1 light with D1E, I2S, A10V, T13A, G155A
modifications: linker-toxophore on lysine NH
B35: Example 260 (antibody, human IgG1, lambda)
heavy: B1 heavy with Q1E, E3Q
light: B1 light with D1E, I2S, A10V, T13A, G155A
modifications: linker-toxophore on cysteine S
B36: Example 230 (antibody, human IgG1, lambda)
heavy: B1 heavy with Q1E, E3Q
light: B1 light with D1E, I2S, A10V, T13A, G155A
modifications: linker-toxophore on cysteine S
B37: Example 256 (antibody, human IgG1, lambda)
heavy: B1 heavy with Q1E, E3Q
light: B1 light with D1E, I2S, A10V, T13A, G155A
modifications: linker-toxophore on cysteine S
B38: Example 195 (antibody, human IgG1, lambda)
heavy: B1 heavy
light: B1 light
modifications: linker-toxophore on cysteine S
B39: Example 373 (antibody, human IgG1, lambda)
heavy: B1 heavy with Q1E, E3Q
light: B1 light with D1E, I2S, A10V, T13A, G155A
modifications: linker-toxophore on lysine NH
B40: Example 245 (antibody, human IgG1, lambda)
heavy: B1 heavy with Q1E, E3Q
light: B1 light with D1E, I2S, A10V, T13A, G155A
modifications: linker-toxophore on cysteine S
B41: Example 253 (antibody, human IgG1, lambda)
heavy: B1 heavy with Q1E, E3Q
light: B1 light with D1E, I2S, A10V, T13A, G155A
modifications: linker-toxophore on lysine NH

The target of the experiment is T1, C4.4a (Homo sapiens, UniProt O95274 31-326).
T1 sequence (looked up): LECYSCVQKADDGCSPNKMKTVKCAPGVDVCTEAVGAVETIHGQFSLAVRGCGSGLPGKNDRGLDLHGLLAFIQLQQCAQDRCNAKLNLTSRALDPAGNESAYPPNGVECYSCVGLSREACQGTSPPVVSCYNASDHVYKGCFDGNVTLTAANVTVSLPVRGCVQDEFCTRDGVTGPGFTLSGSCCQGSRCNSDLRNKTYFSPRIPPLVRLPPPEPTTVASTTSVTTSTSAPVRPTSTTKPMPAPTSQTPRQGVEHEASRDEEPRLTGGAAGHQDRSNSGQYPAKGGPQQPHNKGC
In words: cell-based or functional assay.
With B1, the “IC50 (nM) A549: C4.4a” value amounted to 0.081 nM. As for B2, the “IC50 (nM) A549: C4.4a” value turned out to be 0.04 nM. As to B3, the “IC50 (nM) A549: C4.4a” value amounted to 0.05 nM. For the molecule B4, the “IC50 (nM) A549: C4.4a” value amounted to 0.074 nM. Turning to B5, the “IC50 (nM) A549: C4.4a” value came to 0.03 nM. For B6 the value was 0.1 nM; for B7, 0.3 nM; for B8, 0.2 nM.

As for B9, the “IC50 (nM) A549: C4.4a” value worked out at 0.06 nM. As for B10, the “IC50 (nM) A549: C4.4a” value is 0.1 nM. B11: the “IC50 (nM) A549: C4.4a” value came out at 0.044 nM. As for B12, the “IC50 (nM) A549: C4.4a” value is 1 nM.

In the case of B13, the “IC50 (nM) A549: C4.4a” value was 0.045 nM.

In the case of B14, the “IC50 (nM) A549: C4.4a” value was 0.04 nM. For the molecule B15, the “IC50 (nM) A549: C4.4a” value turned out to be 0.062 nM. On to B16, for which the “IC50 (nM) A549: C4.4a” value was 0.13 nM. For B17, the “IC50 (nM) A549: C4.4a” value was 0.035 nM. Consider B18, for which the “IC50 (nM) A549: C4.4a” value was greater than 100 nM. As for B19, the “IC50 (nM) A549: C4.4a” value worked out at 0.04 nM. For B20 the value was 0.14 nM; for B21, 0.2 nM; for B22, 0.02 nM. As to B23, the “IC50 (nM) A549: C4.4a” value came out at 0.052 nM. With B24, the “IC50 (nM) A549: C4.4a” value was found to be 0.062 nM. Turning to B25, the “IC50 (nM) A549: C4.4a” value was 0.037 nM. For the molecule B26, the “IC50 (nM) A549: C4.4a” value stood at 0.018 nM. On to B27, for which the “IC50 (nM) A549: C4.4a” value stood at 3 nM.

Regarding B28, the “IC50 (nM) A549: C4.4a” value amounted to 0.03 nM. In the case of B29, the “IC50 (nM) A549: C4.4a” value is 0.17 nM. For the molecule B30, the “IC50 (nM) A549: C4.4a” value was 3 nM.

For B31, the “IC50 (nM) A549: C4.4a” value turned out to be 0.036 nM. Take B32: the “IC50 (nM) A549: C4.4a” value was 0.29 nM.

Consider B33, for which the “IC50 (nM) A549: C4.4a” value is 0.03 nM. For the molecule B34, the “IC50 (nM) A549: C4.4a” value stood at 0.1 nM.

Take B35: the “IC50 (nM) A549: C4.4a” value was 0.06 nM.

With B36, the “IC50 (nM) A549: C4.4a” value worked out at 0.02 nM.

Consider B37, for which the “IC50 (nM) A549: C4.4a” value stood at 0.035 nM. For the molecule B38, the “IC50 (nM) A549: C4.4a” value was 0.037 nM.

In the case of B39, the “IC50 (nM) A549: C4.4a” value turned out to be 0.03 nM. For B40 the value was 0.27 nM; for B41, 0.15 nM.

For the origin of these results see patent US20150246136A1 (Bayer, published 2015).
